Test results: the supplement of paper PMC3334620
The full ranking holds about 33,000 sequences; the median of “E-score (-0.5 to 0.5)” is about -0.036, and the highest 2% start at about 0.37. The list shows a part of the results.

molecular target: T1, Yer064c (UniProt P40041); assay: PBM E-score (8-mer binding enrichment) (E-score (-0.5 to 0.5)); higher = stronger / more preferred TF binding; most listed sequences are background and not binding sites; settings: protein concentration: 200 nM; construct: GST-full length
T1 sequence: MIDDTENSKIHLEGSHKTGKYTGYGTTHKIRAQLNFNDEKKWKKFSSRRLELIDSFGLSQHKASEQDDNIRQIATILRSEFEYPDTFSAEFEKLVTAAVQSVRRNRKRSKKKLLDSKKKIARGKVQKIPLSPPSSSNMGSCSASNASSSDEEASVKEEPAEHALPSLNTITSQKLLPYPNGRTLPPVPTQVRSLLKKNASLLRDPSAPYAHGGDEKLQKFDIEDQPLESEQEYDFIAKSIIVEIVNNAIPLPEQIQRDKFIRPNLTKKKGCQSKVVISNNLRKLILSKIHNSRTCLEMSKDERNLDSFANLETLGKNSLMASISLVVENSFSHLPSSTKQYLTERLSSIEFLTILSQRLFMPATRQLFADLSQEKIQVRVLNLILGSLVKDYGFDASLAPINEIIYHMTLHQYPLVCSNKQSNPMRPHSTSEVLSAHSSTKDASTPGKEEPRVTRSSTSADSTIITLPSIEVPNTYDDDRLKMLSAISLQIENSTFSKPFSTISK
In short: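 For each ungapped eight-base word taken together with its reverse complement, the Universal PBM Analysis Suite assigned an E-score. Binding data came from GST-tagged yeast transcription factors, applied at about 100-200 nM, on universal all-10-mer Agilent arrays made double-stranded by primer extension. Fluorescent anti-GST marked bound protein, and scans were normalised with masliner.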

| Sequence | PBM E-score |
| --- | --- |
| CATTTGAC | 0.0216 |
| CTTGAGCA | -0.00447 |
| ACGGCAAT | 0.0667 |
| CAGGCTCG | -0.142 |
| GTCCCAAA | 0.0199 |
| CTAACTAC | 0.0788 |
| TCACGTGA | 0.219 |
| GCGACTCA | 0.483 |
| GAAAATTA | 0.0285 |
| GGAACAAA | -0.0034 |
| CTAGGACC | -0.266 |
| AGTAGAGA | 0.0203 |
| TACCGGAA | -0.0655 |
| CTCGGTAC | 0.03 |
| CCCGACAA | -0.0708 |
| CCCGCGTA | -0.204 |
| ACAATGGG | -0.0921 |
| GCGCTCAC | -0.0637 |
| CGTCTGTA | -0.0838 |
| AGTATAAA | 0.18 |
| ATGGGCAC | -0.0865 |
| AGGATGAA | -0.103 |

| Sequence | PBM E-score |
| --- | --- |
| GAGCGGGC | -0.262 |
| AAAGCTCA | 0.00789 |
| AGACAATC | 0.123 |
| AGTCCCGG | 0.00582 |
| GAAACCCA | -0.0385 |
| CTTAACAA | 0.0734 |
| ATCTGTTG | -0.0199 |
| TGAGACCA | 0.149 |
| CACGTTAA | -0.0619 |
| GCGCTATA | -0.163 |
| AGCTGCGG | -0.247 |
| ACAGATCG | -0.0843 |
| AAGCCTAG | 0.0633 |
| CTGCACGC | -0.246 |
| GCTTATAA | -0.0737 |
| ACCGCAGA | -0.119 |
| TCTCGAGA | 0.0622 |
| AGATCAAT | -0.044 |
| AGGTCTAT | -0.125 |
| CTATATGC | -0.0896 |
| CGACGCTA | -0.0421 |
| GATCTAGC | -0.138 |

| Sequence | PBM E-score |
| --- | --- |
| CCGATAAG | 0.0299 |
| AGCCGAGG | -0.13 |
| AATTTGAA | 0.0382 |
| ACATGTTA | 0.0588 |
| CTAGTATC | 0.0137 |
| CATAAGCA | -0.0777 |
| TAACACCA | -0.0608 |
| AACATACT | -0.144 |
| AGGTGTGC | -0.148 |
| ACATTATG | 0.169 |
| AGCCTTAG | 0.0677 |
| GATTGAAA | 0.212 |
| CCCGTGCA | -0.291 |
| CCTCAGAG | -0.0268 |
| TACGCGCA | -0.102 |
| ACGACAGT | 0.0671 |
| AATACTCA | 0.329 |
| GTCCCAGA | -0.228 |
| AGTCTGGC | 0.0851 |
| CGAACATC | -0.176 |
| AGTGGAGA | -0.0607 |
| CTCACGAC | 0.297 |

| Sequence | PBM E-score |
| --- | --- |
| AAGGCTGG | -0.14 |
| CCCAAAAG | -0.066 |
| ATAGGGGG | -0.2 |
| ATAGTGGC | -0.204 |
| ATCATACG | 0.141 |
| AAGGAACG | -0.167 |
| ATACTGAA | 0.0805 |
| AACACCTG | 0.0786 |
| AGCCGCCG | -0.073 |
| GTTCTGTA | 0.124 |
| CATACTGG | 0.0217 |
| ATACGAGC | 0.12 |
| AGAACATA | -0.147 |
| ACTTCAGG | 0.0199 |
| CAACGCCA | -0.173 |
| TTCCCAAA | -0.0393 |
| CATGCTGA | 0.21 |
| GCCCTATA | -0.14 |
| CTTGACAC | -0.11 |
| ATCCGGCC | -0.236 |
